Values of other authors, collected in US8980610B2 (priority 2009, dated 2015).
Like-named read-outs stand apart in the source and are kept apart here.

What was measured:
Conditions in all cases: cited from earlier work
[1] = tested on: T-odd strains of bacteriophage
[2] = tested on: herpes simplex virus type-1 (HSV-1)
[3] = tested on: T-even strains of bacteriophage (T2L)

For `N=C(N)NCCC[C@H](N)C(=O)O` [Arginine, arginine], which “inactivation of T-odd bacteriophage (in words)” value [1] is on record?
Its value is “did not inactivate”.

What about the “inactivation of HSV-1 (in words)” value ([2]; low (acidic) pH, samples on ice) of the same compound?
The value was “can inactivate”.

What about the “inactivation of HSV-1 (in words)” value ([2]; pH 5.0-pH 7.0) of the same compound?
Its value is “ineffective”.

And the “inactivation of T2L (in words)” value [3]?
The value was “increasingly ineffective”.

And the “inactivation of T-even bacteriophage (in words)” value [3]?
The value was “irreversibly inactivated”.
